The BET-seq Pho4 binding data (Le et al. 2018)
Some of the results follow. Values were computed here from the reads of four pooled replicates and scatter widely.

Each sequence was assayed against T1, Pho4 (S. cerevisiae) (UniProt P07270) (assay: relative binding free energy (BET-seq); higher = weaker binding). Details: reference: library average.
T1 sequence: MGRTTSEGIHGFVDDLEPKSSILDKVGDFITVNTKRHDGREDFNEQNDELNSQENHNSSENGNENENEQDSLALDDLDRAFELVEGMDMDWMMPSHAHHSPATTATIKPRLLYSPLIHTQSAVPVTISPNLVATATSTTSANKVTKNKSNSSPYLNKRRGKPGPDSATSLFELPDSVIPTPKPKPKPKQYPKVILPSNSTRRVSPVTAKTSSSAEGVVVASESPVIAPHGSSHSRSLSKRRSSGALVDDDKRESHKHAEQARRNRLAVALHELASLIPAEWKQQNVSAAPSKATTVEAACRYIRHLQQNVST
For CTGGGCACGTGGCTGG, the “relative binding free energy” value was -0.29 kcal/mol. In the case of AGGATCACGTGACGTG, the “relative binding free energy” value is reported as 0.17 kcal/mol. With AATGGCACGTGGGTAC the “relative binding free energy” value was -0.11 kcal/mol. In the case of GAGGACACGTGGGGAG, the “relative binding free energy” value is reported as -0.03 kcal/mol. For AGTGGCACGTGGATAA, the “relative binding free energy” value was 0.05 kcal/mol. In the case of CAGTCCACGTGGTTTG, the “relative binding free energy” value is reported as 0.03 kcal/mol. With GAGGGCACGTGGTCGT the “relative binding free energy” value was -0.14 kcal/mol. ATGTACACGTGGTTAC was tested, and the “relative binding free energy” value was 0.14 kcal/mol. CTTTGCACGTGGGCTG was tested, and the “relative binding free energy” value was -0.36 kcal/mol. In the case of TCTCGCACGTGAGGGT, the “relative binding free energy” value is reported as 0.21 kcal/mol. GTTATCACGTGATTTC was tested, and the “relative binding free energy” value was 0.37 kcal/mol. AAGTTCACGTGTTGAA was tested, and the “relative binding free energy” value was 0.25 kcal/mol. With AAGGACACGTGTCGGT the “relative binding free energy” value was 0.03 kcal/mol. TGGTGCACGTGACGAG was tested, and the “relative binding free energy” value was 0.22 kcal/mol. For AGTAGCACGTGGGAAG, the “relative binding free energy” value was -0.07 kcal/mol. TGTAGCACGTGGCGGA was tested, and the “relative binding free energy” value was -0.08 kcal/mol. TGTTTCACGTGTCGTG was tested, and the “relative binding free energy” value was 0.18 kcal/mol. In the case of CTAGTCACGTGAGGGT, the “relative binding free energy” value is reported as 0.21 kcal/mol. With GTCTGCACGTGGAGTA the “relative binding free energy” value was -0.05 kcal/mol. ATCGTCACGTGTCTTG was tested, and the “relative binding free energy” value was 0.13 kcal/mol. TTGCACACGTGTTGGA was tested, and the “relative binding free energy” value was -0.01 kcal/mol. In the case of CGTGTCACGTGAGGTT, the “relative binding free energy” value is reported as 0.14 kcal/mol. In the case of AAGTCCACGTGTGGGT, the “relative binding free energy” value is reported as 0.05 kcal/mol. GGTTACACGTGATGCT was tested, and the “relative binding free energy” value was 0.13 kcal/mol. In the case of AGATGCACGTGTTGTC, the “relative binding free energy” value is reported as 0.04 kcal/mol. With TCGGTCACGTGGTGAT the “relative binding free energy” value was 0.09 kcal/mol. TCTATCACGTGTACGT was tested, and the “relative binding free energy” value was 0.22 kcal/mol. With ATGATCACGTGTTGAG the “relative binding free energy” value was -0.01 kcal/mol. In the case of TTTAACACGTGCAGTT, the “relative binding free energy” value is reported as -0.05 kcal/mol. For ATGTGCACGTGAGTTA, the “relative binding free energy” value was 0.29 kcal/mol. With CTTGTCACGTGTATAA the “relative binding free energy” value was 0.19 kcal/mol. With TGCGGCACGTGTTGAG the “relative binding free energy” value was 0.01 kcal/mol. With AGGGGCACGTGGATTC the “relative binding free energy” value was -0.05 kcal/mol. In the case of TTGATCACGTGGGGAT, the “relative binding free energy” value is reported as 0.03 kcal/mol. TAGTGCACGTGGAGGA was tested, and the “relative binding free energy” value was -0.12 kcal/mol. In the case of TGTAGCACGTGCTGGG, the “relative binding free energy” value is reported as -0.18 kcal/mol. GTTAGCACGTGGAGTT was tested, and the “relative binding free energy” value was -0.17 kcal/mol. In the case of CTGAACACGTGGGAGT, the “relative binding free energy” value is reported as 0 kcal/mol. For AGTTTCACGTGGCTTT, the “relative binding free energy” value was 0.31 kcal/mol. With TGAATCACGTGACGTT the “relative binding free energy” value was 0.39 kcal/mol. With TGGTTCACGTGAGGAA the “relative binding free energy” value was 0.47 kcal/mol. In the case of TTTGGCACGTGGATGC, the “relative binding free energy” value is reported as -0.09 kcal/mol. CAGGGCACGTGGCGGG was tested, and the “relative binding free energy” value was -0.12 kcal/mol. With GGTACCACGTGATTGG the “relative binding free energy” value was 0.03 kcal/mol. With AATCGCACGTGTATTG the “relative binding free energy” value was 0.07 kcal/mol. With TTTAGCACGTGAATTT the “relative binding free energy” value was 0.27 kcal/mol. For ATGGTCACGTGGTACT, the “relative binding free energy” value was -0.02 kcal/mol. For CTTGTCACGTGAGTAG, the “relative binding free energy” value was 0.26 kcal/mol. With GGGGTCACGTGTGGAG the “relative binding free energy” value was 0.23 kcal/mol. With GTTGACACGTGAGTAA the “relative binding free energy” value was 0.17 kcal/mol. For TGTGTCACGTGAGCTA, the “relative binding free energy” value was 0.12 kcal/mol. In the case of TGACGCACGTGGATGG, the “relative binding free energy” value is reported as -0.15 kcal/mol. GTTGTCACGTGGGATG was tested, and the “relative binding free energy” value was 0.1 kcal/mol. TATTTCACGTGTGTGT was tested, and the “relative binding free energy” value was 0.37 kcal/mol. In the case of TTTTTCACGTGTTGCC, the “relative binding free energy” value is reported as 0.38 kcal/mol. For TGTTACACGTGGGAAT, the “relative binding free energy” value was 0.07 kcal/mol. In the case of AAGTGCACGTGGGGCT, the “relative binding free energy” value is reported as -0.14 kcal/mol. In the case of CGGATCACGTGAGGAG, the “relative binding free energy” value is reported as 0.37 kcal/mol. With ATTTCCACGTGTCGTT the “relative binding free energy” value was 0.17 kcal/mol. For TGATTCACGTGAGGTG, the “relative binding free energy” value was 0.46 kcal/mol. In the case of GTAGTCACGTGGGGCG, the “relative binding free energy” value is reported as 0.05 kcal/mol. For TATGTCACGTGAATTG, the “relative binding free energy” value was 0.23 kcal/mol. With AGTAGCACGTGGTCAT the “relative binding free energy” value was -0.12 kcal/mol. For CTAATCACGTGATGGG, the “relative binding free energy” value was 0.24 kcal/mol. With GGCATCACGTGGGGTC the “relative binding free energy” value was 0.04 kcal/mol. For ATAGTCACGTGAGGGC, the “relative binding free energy” value was 0.34 kcal/mol. GAGGGCACGTGAGAGG was tested, and the “relative binding free energy” value was 0.3 kcal/mol. In the case of ATATACACGTGAATGT, the “relative binding free energy” value is reported as 0.21 kcal/mol. GTAGTCACGTGTAGGT was tested, and the “relative binding free energy” value was 0.11 kcal/mol. With CTTAGCACGTGGTTTT the “relative binding free energy” value was -0.33 kcal/mol. In the case of CGTGGCACGTGTTGGA, the “relative binding free energy” value is reported as 0.04 kcal/mol. ATTTGCACGTGTCGTC was tested, and the “relative binding free energy” value was 0.11 kcal/mol. With ATCGGCACGTGTTGCT the “relative binding free energy” value was -0.06 kcal/mol. With CTTGTCACGTGTTATG the “relative binding free energy” value was -0.1 kcal/mol. AGTTCCACGTGGTATA was tested, and the “relative binding free energy” value was 0.12 kcal/mol. With TTCTGCACGTGTTTGG the “relative binding free energy” value was 0.04 kcal/mol. In the case of TGTCACACGTGTAGGT, the “relative binding free energy” value is reported as -0.01 kcal/mol. GTATTCACGTGTAGTC was tested, and the “relative binding free energy” value was 0.25 kcal/mol. For AGGGTCACGTGGTGGC, the “relative binding free energy” value was 0.01 kcal/mol. With TTAAACACGTGGTTAT the “relative binding free energy” value was 0.09 kcal/mol. For CTTTGCACGTGGCAGT, the “relative binding free energy” value was -0.04 kcal/mol. In the case of TTTCACACGTGGATGT, the “relative binding free energy” value is reported as 0.03 kcal/mol. In the case of GGGGACACGTGGGAAT, the “relative binding free energy” value is reported as 0.01 kcal/mol. For GTTTGCACGTGGTCGC, the “relative binding free energy” value was -0.1 kcal/mol. For GTTGTCACGTGGTAAT, the “relative binding free energy” value was 0.06 kcal/mol. With GAAGACACGTGGGGGA the “relative binding free energy” value was 0.03 kcal/mol. With GGTCGCACGTGTGAGT the “relative binding free energy” value was -0.02 kcal/mol. With TACGGCACGTGGGTGT the “relative binding free energy” value was -0.2 kcal/mol. For TCCTGCACGTGATTGT, the “relative binding free energy” value was 0.2 kcal/mol. For GAAGCCACGTGGTTGG, the “relative binding free energy” value was -0.06 kcal/mol. With GTTAACACGTGGGTTT the “relative binding free energy” value was 0.01 kcal/mol. TTTGACACGTGGTTGG was tested, and the “relative binding free energy” value was -0.05 kcal/mol. ATCTTCACGTGGCTTT was tested, and the “relative binding free energy” value was 0.29 kcal/mol. TTCGTCACGTGGGATA was tested, and the “relative binding free energy” value was -0.02 kcal/mol. CTCGGCACGTGGCGTG was tested, and the “relative binding free energy” value was -0.1 kcal/mol. With CATTTCACGTGTATTT the “relative binding free energy” value was 0.38 kcal/mol. With GTGCTCACGTGTAGGG the “relative binding free energy” value was 0.11 kcal/mol. For CGTTTCACGTGGTATT, the “relative binding free energy” value was 0.11 kcal/mol. In the case of TTAAACACGTGATATG, the “relative binding free energy” value is reported as 0.12 kcal/mol. With CCTGTCACGTGTATTT the “relative binding free energy” value was 0.19 kcal/mol. In the case of ATACGCACGTGTTTTA, the “relative binding free energy” value is reported as -0.08 kcal/mol. With TCTGCCACGTGGATGG the “relative binding free energy” value was 0.08 kcal/mol. In the case of AGAAGCACGTGTTTTG, the “relative binding free energy” value is reported as -0.15 kcal/mol. For TGAGTCACGTGAGAAG, the “relative binding free energy” value was 0.42 kcal/mol. In the case of GGTTTCACGTGAGTAA, the “relative binding free energy” value is reported as 0.44 kcal/mol. With TTGTCCACGTGTTCTT the “relative binding free energy” value was 0.03 kcal/mol. In the case of TATGCCACGTGTATTT, the “relative binding free energy” value is reported as 0.05 kcal/mol. With AGGCTCACGTGGGGGT the “relative binding free energy” value was 0.04 kcal/mol. ATATGCACGTGTATAT was tested, and the “relative binding free energy” value was -0.05 kcal/mol. GTTTTCACGTGTGGGG was tested, and the “relative binding free energy” value was 0.34 kcal/mol. With CCTTGCACGTGTGGGA the “relative binding free energy” value was -0.03 kcal/mol. ATTGACACGTGTTAGT was tested, and the “relative binding free energy” value was -0.21 kcal/mol. ATGGGCACGTGAGACG was tested, and the “relative binding free energy” value was 0.03 kcal/mol. TGTGTCACGTGTCTAT was tested, and the “relative binding free energy” value was 0.03 kcal/mol. ATCGACACGTGAGTTG was tested, and the “relative binding free energy” value was 0.26 kcal/mol.
